Source: patent US20200181601A1 (INSTITUT PASTEUR, published 2020)
Changes are numbered by the printed parent chain.

T1: PulD-N, soluble monomeric fragment corresponding to the N-terminal region of PulD from Klebsiella oxytoca (Klebsiella oxytoca, UniProt P15644 28-264)
T1 construct: domain: N-terminal region of PulD; also called N-terminal domain of PulD
T1 sequence: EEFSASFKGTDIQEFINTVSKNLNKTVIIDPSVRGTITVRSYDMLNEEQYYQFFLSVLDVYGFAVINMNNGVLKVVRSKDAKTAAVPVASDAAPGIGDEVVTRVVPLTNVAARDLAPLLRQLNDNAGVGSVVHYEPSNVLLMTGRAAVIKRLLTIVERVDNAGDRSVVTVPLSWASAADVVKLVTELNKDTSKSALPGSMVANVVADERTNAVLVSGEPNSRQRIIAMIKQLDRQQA

B1: clone 6 (anti-PulD-N Sac7d variant from library 14, round 5) (designed binder)
chain: MRGSHHHHHHGSVKVKFVLGGEEKEVDTSKIRHVYRYGKHVTFSYDDNGKLGLGLVKEKDAPKELLDMLARAEREKKLN
notes: also called Sac7*6
B2: clone 39 (anti-PulD-N Sac7d variant from library 14, round 5) (designed binder)
chain: MRGSHHHHHHGSVKVKFCWEGEEKEVDTSKIRHVYRYGKYVTFSYDDNGKLGLGLVNEKDAPKELLDMLARAA
B3: clone 40 (anti-PulD-N Sac7d variant from library 14, round 5) (designed binder)
chain: MRGSHHHHHHGSVKVKFGEHGEEKEVDTSKIMSVVRFGKWVCFRYDDNGKAGYGAVLEKDAPKELLDMLARAEREKKLN
notes: also called Sac7*40
B4: clone 41 (anti-PulD-N Sac7d variant from library 14, round 5) (designed binder)
chain: B3 chain with G18V, E19M, H20S
B5: clone 33 (anti-PulD-N Sac7d variant from library 14, round 5) (designed binder)
chain: MRGSHHHHHHGSVKVKFTWYGEEKEVDTSKIMSVCRWGKRVAFSYDDNGKIDYGLVDEKDAPKELLDMLARAEREKKLN
notes: also called Sac7*33

The binders below were run against T1, PulD-N, soluble monomeric fragment … (assay: SPR kinetic analysis).

Binder | Kd
B1 | 0.13 nM
B2 | 0.52 nM
B3 | 0.6 nM
B4 | 0.61 nM
B5 | 0.19 nM

Each binder was assayed against T1, PulD-N, soluble monomeric fragment … (assay: competition SPR, free PulD-N as competitor).

Binder | Kd
B1 | 0.14 nM
B2 | 1.1 nM
B3 | 0.9 nM
B4 | 1.1 nM
B5 | 0.17 nM

These binders were tested against T1, PulD-N, soluble monomeric fragment … (assay: SPR (BIAcore), biotinylated PulD-N on streptavidin chip, global kinetic fit).

Binder | koff | kon
B1 | 0.0025 s⁻¹ | 1.9e+07 M⁻¹ s⁻¹
B2 | 0.0086 s⁻¹ | 1.7e+07 M⁻¹ s⁻¹
B3 | 0.014 s⁻¹ | 2.3e+07 M⁻¹ s⁻¹
B4 | 0.012 s⁻¹ | 2e+07 M⁻¹ s⁻¹
B5 | 0.0032 s⁻¹ | 1.7e+07 M⁻¹ s⁻¹

What follows are binders tested against T1, PulD-N, soluble monomeric fragment … (assay: SPR kinetics, 300 mM NaCl against the running buffer (data not shown)).

Binder | factor of reduction of the association kinetics at 300 mM NaCl
B1 | 1.3 fold
B2 | 1.3 fold
B3 | 1.3 fold
B4 | 1.3 fold
B5 | 1.3 fold
